Laboratory results published in article PMC4336329 (PLoS ONE, 2015).
Among all 310,000 compounds or so, about 14,000 (4.5%) showed an effect of 50% or more. The effect is printed as a negative number. The list shows a part of the results.

What follows are compounds tested against human ether-à-go-go-related gene (hERG) potassium channel (human, UniProt Q12809) (assay: primary screen, population patch clamp on CHO cells stably expressing hERG).
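Note: peak tail current of the secondary pulse compared with the same well before compound.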

Chain of human ether-à-go-go-related gene (hERG) potassium channel (Q12809 whole entry, looked up): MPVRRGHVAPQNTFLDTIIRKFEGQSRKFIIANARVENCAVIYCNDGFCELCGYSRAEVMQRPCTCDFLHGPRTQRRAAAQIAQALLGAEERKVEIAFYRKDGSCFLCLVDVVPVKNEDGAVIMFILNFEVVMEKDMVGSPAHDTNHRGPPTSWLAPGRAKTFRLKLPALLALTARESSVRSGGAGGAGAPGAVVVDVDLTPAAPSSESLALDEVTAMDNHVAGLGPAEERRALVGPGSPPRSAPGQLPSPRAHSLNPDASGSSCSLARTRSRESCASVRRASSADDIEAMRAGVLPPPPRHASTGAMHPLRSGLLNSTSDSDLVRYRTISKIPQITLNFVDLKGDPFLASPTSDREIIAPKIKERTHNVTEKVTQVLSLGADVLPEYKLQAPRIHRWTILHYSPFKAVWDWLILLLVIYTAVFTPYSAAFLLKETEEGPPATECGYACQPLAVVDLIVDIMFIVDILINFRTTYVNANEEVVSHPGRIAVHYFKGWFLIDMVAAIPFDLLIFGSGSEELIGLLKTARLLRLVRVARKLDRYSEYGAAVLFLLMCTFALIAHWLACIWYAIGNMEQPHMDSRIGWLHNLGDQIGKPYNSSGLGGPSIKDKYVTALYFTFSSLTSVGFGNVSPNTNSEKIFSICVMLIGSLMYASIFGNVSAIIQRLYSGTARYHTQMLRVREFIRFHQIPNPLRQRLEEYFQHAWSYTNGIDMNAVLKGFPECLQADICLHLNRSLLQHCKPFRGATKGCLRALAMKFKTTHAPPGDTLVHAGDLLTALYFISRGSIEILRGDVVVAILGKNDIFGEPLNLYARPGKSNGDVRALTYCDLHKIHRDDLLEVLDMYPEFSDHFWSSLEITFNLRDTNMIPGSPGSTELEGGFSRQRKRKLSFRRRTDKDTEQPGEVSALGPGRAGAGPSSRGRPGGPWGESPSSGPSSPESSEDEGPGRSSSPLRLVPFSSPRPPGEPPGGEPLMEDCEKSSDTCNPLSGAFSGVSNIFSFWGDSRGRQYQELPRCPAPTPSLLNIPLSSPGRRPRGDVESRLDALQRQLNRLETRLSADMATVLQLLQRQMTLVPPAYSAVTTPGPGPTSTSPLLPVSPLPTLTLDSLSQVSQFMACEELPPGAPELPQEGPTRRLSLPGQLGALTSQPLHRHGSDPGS

**Q.** How did the “hERG current change (%, negative = inhibition) at 10uM” value turn out when Cc1sc2ncnc(N[C@@H](Cc3c[nH]c4ccccc34)C(=O)O)c2c1C was run?
**A.** 15.7%

**Q.** O=C(Nc1ccc(NS(=O)(=O)c2ccccc2)cc1)c1cccnc1 was tested. Which “hERG current change (%, negative = inhibition) at 10uM” value did it give?
**A.** 9.87%

**Q.** With O=C(Nc1ccccc1[N+](=O)[O-])C1C(c2ccccc2)=C1c1ccccc1 as the compound, how does the “hERG current change (%, negative = inhibition) at 10uM” value read?
**A.** 6.63%

**Q.** How did the “hERG current change (%, negative = inhibition) at 10uM” value turn out when O=C(Nc1ccc([N+](=O)[O-])cc1)c1cncc(Br)c1 was run?
**A.** -13.9%

**Q.** With C=CCn1c(=O)c2c3c(sc2n2c(Nc4ccc(C(=O)OCC)cc4)nnc12)CCCC3 as the compound, how does the “hERG current change (%, negative = inhibition) at 10uM” value read?
**A.** 5.32%

**Q.** For O=C1c2ccccc2N2C(=O)c3ccccc3[C@H]2N1c1ccccc1, which “hERG current change (%, negative = inhibition) at 10uM” value is on record?
**A.** -22.4%

**Q.** With COc1ccc(-c2nnc(NC(=O)C(C)C)o2)cc1 as the compound, how does the “hERG current change (%, negative = inhibition) at 10uM” value read?
**A.** -3.15%

**Q.** For CC1c2cc3c(cc2CCN1CC(=O)Nc1ccccc1)OCCCO3 (centres unmarked), which “hERG current change (%, negative = inhibition) at 10uM” value is on record?
**A.** -1.37%

**Q.** How did the “hERG current change (%, negative = inhibition) at 10uM” value turn out when CN(/N=C/c1cccnc1)C1=NS(=O)(=O)c2ccccc21 was run?
**A.** -4.86%

**Q.** How did the “hERG current change (%, negative = inhibition) at 10uM” value turn out when N#CC(C#N)C(c1ccsc1)c1c(-c2ccccc2)[nH][nH]c1=O (centres unmarked) was run?
**A.** -3.36%

**Q.** How did the “hERG current change (%, negative = inhibition) at 10uM” value turn out when CN(C)P(=O)(NC(=O)c1cccn1C)N(C)C was run?
**A.** 47.3%

**Q.** Which “hERG current change (%, negative = inhibition) at 10uM” value does the source give for COc1ccccc1-c1nc(=S)c(C(C)=O)c(C)[nH]1 here?
**A.** 11.3%

**Q.** For Cc1cc(C)nc(SC(C)C(=O)N/N=C/c2cccs2)n1 (centres unmarked), which “hERG current change (%, negative = inhibition) at 10uM” value is on record?
**A.** -0.903%

**Q.** CCN(CC)Cc1c(O)ccc2c(C)c(CC(=O)OC)c(=O)oc12.Cl was tested. Which “hERG current change (%, negative = inhibition) at 10uM” value did it give?
**A.** 19.9%

**Q.** Which “hERG current change (%, negative = inhibition) at 10uM” value does the source give for Cc1ccc2[nH]c(=O)c(CN(Cc3cccnc3)Cc3nnnn3CC3CCCO3)cc2c1 (centres unmarked) here?
**A.** -0.809%

**Q.** How did the “hERG current change (%, negative = inhibition) at 10uM” value turn out when COc1ccc(C=C(c2ccc(OC)cc2)c2ccc(OC)cc2)cc1 was run?
**A.** 13%

**Q.** With Cc1c(CCC(=O)N[C@@H](CC(C)C)C(=O)O)c(=O)oc2cc3oc4c(c3cc12)CCCC4 as the compound, how does the “hERG current change (%, negative = inhibition) at 10uM” value read?
**A.** -2.57%

**Q.** With COc1ccc(OC)c(Nc2cc3ccccc3c(=O)[nH]2)c1 as the compound, how does the “hERG current change (%, negative = inhibition) at 10uM” value read?
**A.** 20.2%

**Q.** With COc1ccc(-c2cc(C(F)F)n3ncc(C(=O)Nc4c(C)n(C)n(-c5ccccc5)c4=O)c3n2)cc1 as the compound, how does the “hERG current change (%, negative = inhibition) at 10uM” value read?
**A.** 8.05%

**Q.** How did the “hERG current change (%, negative = inhibition) at 10uM” value turn out when COc1cc2c(cc1OC)C(COc1ccccc1OC)N(C(=O)c1ccco1)CC2 (centres unmarked) was run?
**A.** -15.6%

**Q.** For CC(C)C(=O)N1CCN(c2nc3ccc(Cl)cc3s2)CC1, which “hERG current change (%, negative = inhibition) at 10uM” value is on record?
**A.** -47.5%

**Q.** Which “hERG current change (%, negative = inhibition) at 10uM” value does the source give for O=C(CN1C(=O)COc2ccccc21)N1CCc2ccccc21 here?
**A.** 11.6%

**Q.** How did the “hERG current change (%, negative = inhibition) at 10uM” value turn out when CCn1ccnc1CN1CCCC(C(=O)c2cc(Cl)ccc2OC)C1 (centres unmarked) was run?
**A.** -73.3%

**Q.** How did the “hERG current change (%, negative = inhibition) at 10uM” value turn out when Cc1ccc(S(=O)(=O)NC(=NCc2ccccc2)c2ccc(F)cc2)cc1 was run?
**A.** 4.78%

**Q.** For CC(C)Nc1nc(NC(C)(C)C)nc(Oc2ccc(=O)n(-c3ccccc3)n2)n1, which “hERG current change (%, negative = inhibition) at 10uM” value is on record?
**A.** 3.15%

**Q.** With CCOC(=O)COn1c(=O)c(-c2cccs2)[n+]([O-])c2ccccc21 as the compound, how does the “hERG current change (%, negative = inhibition) at 10uM” value read?
**A.** -20.4%

**Q.** With CC(C)(C)OC(=O)N1CCC[C@H]1C(=O)N/N=C/c1ccc2nccnc2c1 as the compound, how does the “hERG current change (%, negative = inhibition) at 10uM” value read?
**A.** 19.5%

**Q.** For Br.CCCN(CCC)C1CCc2ccc(O)cc2C1 (centres unmarked), which “hERG current change (%, negative = inhibition) at 10uM” value is on record?
**A.** -70%

**Q.** How did the “hERG current change (%, negative = inhibition) at 10uM” value turn out when O=C1Nc2ccccc2OCc2c1cccc2[N+](=O)[O-] was run?
**A.** -38.7%

**Q.** With COc1ccc(-c2nnc(SCc3c(C)noc3C)o2)cc1 as the compound, how does the “hERG current change (%, negative = inhibition) at 10uM” value read?
**A.** -11.3%

**Q.** With CCC(C)[C@H](NC(=O)N1CCCCCC1)C(=O)O (some centres unmarked) as the compound, how does the “hERG current change (%, negative = inhibition) at 10uM” value read?
**A.** 9.71%

**Q.** With CC(=O)Nc1ccc(S(=O)(=O)Nc2ccc(=O)n(Cc3ccc(Cl)c(Cl)c3)c2)cc1 as the compound, how does the “hERG current change (%, negative = inhibition) at 10uM” value read?
**A.** 12.5%

**Q.** For Cc1cc(C=O)c(C)n1-c1ccc(NC2CCCCC2)c([N+](=O)[O-])c1, which “hERG current change (%, negative = inhibition) at 10uM” value is on record?
**A.** 6.04%

**Q.** With O=C(CNC(=O)c1ccc2c(c1)OCO2)N/N=C/c1cc(Br)ccc1O as the compound, how does the “hERG current change (%, negative = inhibition) at 10uM” value read?
**A.** 20.1%

**Q.** Cc1ccc(OCCCNCCO)c(Br)c1.O=C(O)C(=O)O was tested. Which “hERG current change (%, negative = inhibition) at 10uM” value did it give?
**A.** -10.5%

**Q.** Which “hERG current change (%, negative = inhibition) at 10uM” value does the source give for Cc1cnc(C(=O)OCC(=O)NCCc2ccccc2)cn1 here?
**A.** -3.4%

**Q.** Which “hERG current change (%, negative = inhibition) at 10uM” value does the source give for Cc1cc(C)c(NC(=O)CNC(=O)COC(=O)CN2C(=O)NC3(CCCC3)C2=O)c(C)c1 here?
**A.** 15.9%

**Q.** Which “hERG current change (%, negative = inhibition) at 10uM” value does the source give for CCCOc1ccc(N/C=C/C(=O)c2ccc(OC)c(OC)c2)cc1 here?
**A.** -8.4%

**Q.** For CCOC(=O)C1CCN(C(=O)c2ccc(Cl)c(S(=O)(=O)N3CCCC3)c2)CC1, which “hERG current change (%, negative = inhibition) at 10uM” value is on record?
**A.** -13.8%

**Q.** Cc1cccc2nc3c(nc12)-c1ccccc1C3=O was tested. Which “hERG current change (%, negative = inhibition) at 10uM” value did it give?
**A.** 21%

**Q.** Cc1ccc(N(Cc2ccccc2)C(=O)c2cc(S(=O)(=O)N3CCOCC3)ccc2N2CCCC2)cc1 was tested. Which “hERG current change (%, negative = inhibition) at 10uM” value did it give?
**A.** 5.59%

**Q.** How did the “hERG current change (%, negative = inhibition) at 10uM” value turn out when N#Cc1ccsc1NC(=O)CN1CCCCC1 was run?
**A.** -5.6%

**Q.** COc1cc(O)c2c(c1)OC(c1ccc(O)cc1)CC2=O (centres unmarked) was tested. Which “hERG current change (%, negative = inhibition) at 10uM” value did it give?
**A.** -14.9%

**Q.** CCOc1ccc(OCCOCCN2CCCC2)cc1.O=C(O)C(=O)O was tested. Which “hERG current change (%, negative = inhibition) at 10uM” value did it give?
**A.** 0.376%
